Values joined by “and” are separate entries in the source; they are usually repeats but may differ in a detail not shown here. Equal entries are not always repeated. Structures can show the parent of a compound that is named as a salt. Out of some 5,800 compounds screened, about 620 (11%) showed activity.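 The calls were made as follows: active = score above a cut-off or among the top three wells of a plate; in these data no inactive exceeds 0.85.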 This is a selection; strong and weak results do not stand in their true shares.

Data on 64 molecules can be found in the supplement of paper PMC9135407.

In this assay the test system is primary human hepatic stellate cells (donor 1). In words: scaled lipid accumulation score (0 = DMSO-like, 1 = nortriptyline-like); higher = stronger HSC inactivation (lipid re-accumulation), active = hit call of the paper. The conditions noted are these: 48 h.
Setting [1] is: library stock concentration: 10 mM.
The mark [2] stands for this setting: library stock concentration: 1 mM.
[3] abbreviates: library stock concentration: 3.33 mM.
Where [4] appears, read: library stock concentration: 80 uM.
[5] abbreviates: library stock concentration: 400 uM.
The mark [6] stands for this setting: library stock concentration: 2 mM.

As to `Cc1scc2c1N(C(=O)CN1CCN(C)CC1)c1ccccc1NC2=O` [Telenzepine hydrochloride], under setting [1], the “scaled lipid accumulation score” value was inactive: 0.084.
`Cc1scc2c1N(C(=O)CN1CCN(C)CC1)c1ccccc1NC2=O` [Telenzepine dihydrochloride]: the “scaled lipid accumulation score” value is inactive: ≤ 0. Besides, the “scaled lipid accumulation score” value under setting [1] was inactive: 0.052 and inactive: 0.027.
Consider `Cc1scc2c1N(C(=O)CN1CCN(C)CC1)c1ccccc1NC2=O` [Telenzepine 2HCl], for which the “scaled lipid accumulation score” value (library stock concentration: 5.4 mM) was inactive: 0.006.
For `Cc1cc2c(cc1Cl)N(C(=O)Nc1ccc(Oc3cccnc3C)nc1)CC2`, the “scaled lipid accumulation score” value under setting [1] was inactive: 0.832.
As to `COc1cc2nc(N3CCCN(C)CC3)nc(NC3CCN(Cc4ccccc4)CC3)c2cc1OC.Cl.Cl.Cl.O`, the “scaled lipid accumulation score” value under setting [2] is active: 0.804.
As for `CN(C)CCC(c1ccc(Cl)cc1)c1ccccn1` (single isomer, unassigned; (+)) [(+)-Chlorpheniramine maleate], under setting [1], the “scaled lipid accumulation score” value was inactive: 0.803.
Regarding `COc1ccc(CN(CCN(C)C)c2ccccn2)cc1` [Pyrilamine maleate], the “scaled lipid accumulation score” value was inactive: 0.157. Further, for the setting “library stock concentration: 5 mM”, the “scaled lipid accumulation score” value is inactive: ≤ 0. For the same molecule, the “scaled lipid accumulation score” value under setting [1] was inactive: 0.006 and inactive: 0.264.
On to `COc1ccc(CN(CCN(C)C)c2ccccn2)cc1` [Mepyramine maleate], for which the “scaled lipid accumulation score” value reads like this: (library stock concentration: 7 mM) inactive: ≤ -0.001; under setting [1], inactive: 0.294.
On to `CCCNC(C)C(=O)Nc1ccccc1C` (configuration not stated) [Prilocaine hydrochloride], for which the “scaled lipid accumulation score” value is inactive: ≤ 0. Further, the “scaled lipid accumulation score” value (library stock concentration: 7.8 mM) was inactive: ≤ 0. The “scaled lipid accumulation score” value under setting [1] is inactive: ≤ 0 and inactive: ≤ -0.027.
`CCCNC(C)C(=O)Nc1ccccc1C` (configuration not stated) [Prilocaine]: the “scaled lipid accumulation score” value under setting [3] was inactive: ≤ 0 and the “scaled lipid accumulation score” value under setting [1] is inactive: ≤ 0.
As for `Nc1ncn([C@@H]2O[C@H](CO)[C@@H](O)[C@H]2O)c(=O)n1` [Azacitidine], the “scaled lipid accumulation score” value under setting [4] is inactive: ≤ 0; the “scaled lipid accumulation score” value under setting [5] was inactive: ≤ 0; the “scaled lipid accumulation score” value under setting [6] was inactive: ≤ 0; the “scaled lipid accumulation score” value under setting [3] was inactive: ≤ 0; the “scaled lipid accumulation score” value under setting [1] was inactive: 0.002 and inactive: ≤ 0.
Turning to `Nc1ncn([C@@H]2O[C@H](CO)[C@@H](O)[C@H]2O)c(=O)n1` [5-Azacytidine], the “scaled lipid accumulation score” value under setting [1] is inactive: 0.208.
With `Nc1ncn([C@@H]2O[C@H](CO)[C@@H](O)[C@H]2O)c(=O)n1` [5-azacytidine], the “scaled lipid accumulation score” value under setting [1] was inactive: ≤ 0.
As to `CC(COc1ccccc1)N(CCCl)Cc1ccccc1` (configuration not stated) [Phenoxybenzamine hydrochloride], the “scaled lipid accumulation score” value is inactive: 0.065. Also, the “scaled lipid accumulation score” value (library stock concentration: 5.9 mM) is inactive: ≤ 0.
For `CC(COc1ccccc1)N(CCCl)Cc1ccccc1` (configuration not stated) [Phenoxybenzamine HCl], the “scaled lipid accumulation score” value is, setting by setting: under setting [3], inactive: ≤ 0; (library stock concentration: 6.6 mM) inactive: 0.025; under setting [1], inactive: ≤ 0.
Regarding `CC(COc1ccccc1)N(CCCl)Cc1ccccc1` (configuration not stated) [Dibenzyline], under setting [1], the “scaled lipid accumulation score” value is inactive: 0.174.
As for `CC(COc1ccccc1)N(CCCl)Cc1ccccc1` (configuration not stated) [Phenoxybenzamine], the “scaled lipid accumulation score” value (library stock concentration: 16.5 mM) is inactive: ≤ -0.012.
For `CCCCCCCC/C=C/CCCCCCCC(=O)Nc1c(C(C)C)cccc1C(C)C` [Oleic Acid-2,6-diisopropylanilide], the “scaled lipid accumulation score” value under setting [2] was inactive: ≤ 0.
As for `CNc1ncnc2c1ncn2[C@H]1C[C@H](OP(=O)(O)O)[C@@H](COP(=O)(O)O)O1`, the “scaled lipid accumulation score” value under setting [1] was inactive: 0.065.
Regarding `O=C(Nc1ccc(OC(F)(F)F)cc1)c1sccc1NCc1ccnc2ccccc12`, the “scaled lipid accumulation score” value runs as follows: under setting [4], inactive: 0.018; under setting [5], inactive: 0.035; under setting [6], inactive: ≤ -0.009; under setting [3], inactive: ≤ 0; under setting [1], inactive: ≤ 0 and inactive: ≤ -0.004.
Take `COc1cc(/C=C/C(=O)N2CCN(CC(=O)N3CCCC3)CC2)cc(OC)c1OC` [Cinepazide maleate]: the “scaled lipid accumulation score” value runs as follows: under setting [3], inactive: 0.048; under setting [1], inactive: ≤ 0.
Consider `Cc1c(-c2ccnn2C)cc(C(=O)NCc2ccc(S(C)(=O)=O)cn2)c(=O)n1-c1cccc(C(F)(F)F)c1` [Alvelestat (AZD9668)], for which the “scaled lipid accumulation score” value runs as follows: under setting [3], inactive: ≤ -0.009; under setting [1], inactive: 0.21.
`CC(=O)c1ccc(S(=O)(=O)NC(=O)NC2CCCCC2)cc1` [Acetohexamide]: the “scaled lipid accumulation score” value is inactive: ≤ 0. In addition, under “library stock concentration: 6.2 mM”, the “scaled lipid accumulation score” value was inactive: ≤ 0. Further, the “scaled lipid accumulation score” value under setting [1] is inactive: 0.116.
For the molecule `CCSC(=N)N` [EIT hydrobromide], the “scaled lipid accumulation score” value under setting [1] was inactive: ≤ 0.
On to `CCSC(=N)N` [S-ethyl Isothiourea (hydrobromide)], for which the “scaled lipid accumulation score” value under setting [2] was inactive: 0.007.
`CCSC(=N)N` [S-Ethylisothiourea hydrobromide]: the “scaled lipid accumulation score” value under setting [1] is inactive: 0.211.
As to `O=C(O)CCC/C=C\C[C@@H]1[C@@H](/C=C/[C@@H](O)C2CCCCC2)[C@H](O)C[C@@H]1O` [15-cyclohexyl pentanor Prostaglandin F2.alpha.], the “scaled lipid accumulation score” value under setting [2] was inactive: ≤ 0.
`CCCCC[C@H](O)/C=C/[C@@H]1[C@@H](C/C=C\CCCC(=O)O)[C@@H](O)C[C@H]1O` [Dinoprost trometamol]: the “scaled lipid accumulation score” value was inactive: 0.001.
On to `CCCCC[C@H](O)/C=C/[C@@H]1[C@@H](C/C=C\CCCC(=O)O)[C@@H](O)C[C@H]1O` [Prostaglandin F2a], for which, under setting [2], the “scaled lipid accumulation score” value was inactive: ≤ -0.021.
Take `CCCCC[C@H](O)/C=C/[C@@H]1[C@@H](C/C=C\CCCC(=O)O)[C@@H](O)C[C@H]1O` [Prostaglandin F2.alpha. (tromethamine salt)]: the “scaled lipid accumulation score” value under setting [2] was inactive: ≤ 0.
As for `CCCCC[C@H](O)/C=C/[C@@H]1[C@@H](C/C=C\CCCC(=O)O)[C@@H](O)C[C@H]1O` [Prostaglandin F2.alpha.], under setting [2], the “scaled lipid accumulation score” value was inactive: ≤ 0.
Regarding `CCOC(=O)c1ccc(OC(=O)CCCCCNC(=N)N)cc1` [Gabexate mesilate], the “scaled lipid accumulation score” value is inactive: ≤ 0.
For the molecule `CCOC(=O)c1ccc(OC(=O)CCCCCNC(=N)N)cc1`, the “scaled lipid accumulation score” value under setting [1] was inactive: ≤ 0.
As for `CCOC(=O)c1ccc(OC(=O)CCCCCNC(=N)N)cc1` [Gabexate mesylate], under setting [1], the “scaled lipid accumulation score” value is inactive: ≤ -0.006.
The same measure, in the same setting: next, `CSc1nc(NC2CCCC2)c([N+](=O)[O-])c(NC2CCCC2)n1`: inactive: ≤ -0.001; `CCC(=O)N1CCN(C(=O)c2ccccc2)CC1`: inactive: 0.027.
On the same count and under the same terms, next, `O=C(NC1CCN(CCCCC2(C(=O)NCC(F)(F)F)c3ccccc3-c3ccccc32)CC1)c1ccccc1-c1ccc(C(F)(F)F)cc1` [Lomitapide]: inactive: ≤ 0.
For the molecule `OC[C@H]1O[C@H]([S-])[C@H](O)[C@@H](O)[C@@H]1O.[Au+]` [Aurothioglucose], the “scaled lipid accumulation score” value (library stock concentration: 5.1 mM) was inactive: 0.336 and the “scaled lipid accumulation score” value under setting [1] was inactive: 0.397.
On to `CCCN[C@H]1CCc2nc(N)sc2C1` [Pramipexole], for which the “scaled lipid accumulation score” value is inactive: ≤ 0 under setting [3], inactive: ≤ 0 (library stock concentration: 9.5 mM) and inactive: ≤ 0 under setting [1].
For `CCCN[C@H]1CCc2nc(N)sc2C1`, the “scaled lipid accumulation score” value under setting [1] was inactive: ≤ 0.
Turning to `Cc1cc(=O)oc2cc(O)ccc12` [Hymecromone], the “scaled lipid accumulation score” value was inactive: ≤ 0.
Consider `Cc1cc(=O)oc2cc(O)ccc12` [4-Methylumbelliferone (4-MU)], for which the “scaled lipid accumulation score” value under setting [3] was inactive: ≤ 0 and the “scaled lipid accumulation score” value under setting [1] is inactive: ≤ 0.
Turning to `Cc1cc(=O)oc2cc(O)ccc12`, the “scaled lipid accumulation score” value under setting [1] is inactive: ≤ 0.
`CNC(=O)c1cc2c(cn1)[nH]c1ccccc12` [N-Methyl-beta-carboline-3-carboxamide]: under setting [1], the “scaled lipid accumulation score” value is inactive: 0.359.
In the case of `CNC(=O)c1cc2c(cn1)[nH]c1ccccc12`, under setting [1], the “scaled lipid accumulation score” value was inactive: 0.022.
In the case of `OCCCNc1cc(-c2ccnc(Nc3cccc(Cl)c3)n2)ccn1`, the “scaled lipid accumulation score” value is inactive: 0.137 under setting [4], inactive: 0.324 under setting [5] and inactive: 0.587 under setting [6].
Regarding `O=c1ncccn1[C@@H]1O[C@H](CO)[C@@H](O)[C@H]1O` [Zebularine], the “scaled lipid accumulation score” value under setting [3] is inactive: ≤ -0.009; the “scaled lipid accumulation score” value under setting [1] is inactive: ≤ 0 and inactive: ≤ -0.001.
On to `O=C(CCCCCCNC(=O)c1cnc(N(c2ccccc2)c2ccccc2)nc1)NO` [Rocilinostat], for which the “scaled lipid accumulation score” value was inactive: ≤ 0 under setting [4], inactive: ≤ 0 under setting [5], inactive: ≤ 0 under setting [6] and inactive: 0.052 under setting [1].
On to `O=C(CCCCCCNC(=O)c1cnc(N(c2ccccc2)c2ccccc2)nc1)NO` [Rocilinostat (ACY-1215)], for which the “scaled lipid accumulation score” value under setting [3] was inactive: 0.005 and the “scaled lipid accumulation score” value under setting [1] is inactive: 0.688.
In the case of `CN(C)CCN(Cc1cccs1)c1ccccn1` [Methapyrilene hydrochloride], the “scaled lipid accumulation score” value is inactive: 0.366. For the setting “library stock concentration: 6.7 mM”, the “scaled lipid accumulation score” value was inactive: 0.068. Further, under setting [1], the “scaled lipid accumulation score” value was inactive: 0.38 and inactive: 0.249.
Take `COc1c(O[C@@H]2O[C@H](CO)[C@@H](O)[C@H](O)[C@H]2O)cc2c(c1OC)-c1ccc(SC)c(=O)cc1[C@@H](NC(C)=O)CC2` [Thiocolchicoside]: the “scaled lipid accumulation score” value is inactive: 0.025.
Take `CCCCCCCCCCCCCCCCCCCCCCCCC(=O)OC` [Pentacosanoic Acid methyl ester]: under setting [2], the “scaled lipid accumulation score” value was inactive: ≤ 0.
`CC(=O)c1ccc2c(c1)N(CCCN(C)C)c1ccccc1S2.O=C(O)/C=C\C(=O)O` [Acepromazine maleate]: the “scaled lipid accumulation score” value under setting [1] is active: 0.989.
As to `CN1CCC(=C2c3ccccc3CC(=O)c3sccc32)CC1.O=C(O)/C=C/C(=O)O` [Ketotifen fumarate], the “scaled lipid accumulation score” value under setting [1] was active: 0.913.
For `NC(CO)(CO)CO` [Trometamol], the “scaled lipid accumulation score” value under setting [3] is inactive: ≤ 0 and the “scaled lipid accumulation score” value under setting [1] is inactive: ≤ -0.001.
Regarding `CCCCCCCCCCCCCC=CC(O)C(COP(=O)(O)O)NC(=O)CCCCCCC` (configuration not stated) [C-8 Ceramide-1-phosphate], the “scaled lipid accumulation score” value under setting [2] is inactive: ≤ 0.
As to `COc1ccccc1CNC1CCCNC1c1ccccc1` (configuration not stated), the “scaled lipid accumulation score” value under setting [1] is inactive: 0.474.
Turning to `N#Cc1ccccc1OCC(O)CNCCNC(=O)Nc1ccccc1` (configuration not stated), the “scaled lipid accumulation score” value under setting [1] is inactive: 0.135.
On to `Clc1ccc(C(Cn2ccnc2)OCc2c(Cl)cccc2Cl)c(Cl)c1` (configuration not stated) [Isoconazole nitrate], for which the “scaled lipid accumulation score” value is, setting by setting: under setting [3], inactive: 0.019; under setting [1], inactive: 0.233.
Consider `Clc1ccc(C(Cn2ccnc2)OCc2c(Cl)cccc2Cl)c(Cl)c1` (configuration not stated) [Isoconazole], for which the “scaled lipid accumulation score” value is inactive: ≤ 0.
Regarding `NCCC[C@H](N)C(=O)O`, under setting [1], the “scaled lipid accumulation score” value is inactive: 0.09.
Regarding `CC(C)n1nc(-c2cc3cc(O)ccc3[nH]2)c2c(N)ncnc21`, the “scaled lipid accumulation score” value is inactive: 0.1 under setting [3] and inactive: 0.011 under setting [1].
`C1=CCOCc2cc(ccc2OCCN2CCCC2)Nc2nccc(n2)-c2cccc(c2)COC1` [Pacritinib]: the “scaled lipid accumulation score” value under setting [1] was active: 0.932.
The same measure, in the same setting: under `CCOC(=O)C1=C(C)NC(C)=C(C(=O)OCC)C1c1c(F)c(F)c(F)c(F)c1F` [Nemadipine-A] stands inactive: 0.282.
